The results in this text go back to US20130316901A1 (priority 2011, published 2013).

For this assay, the system named is Phytophthora infestans. The format is in vivo. As to conditions: tomatoes, preventive spray, evaluated 3 days after inoculation.

Where two headings read alike, the source gives them in different places.

Take `Cn1c(=O)c2sc3c(=O)n(C)c(=O)c3sc2c1=O` [(I-1), 2,6-dimethyl-1H,5H-[1,4]dithiino[2,3-c:5,6-c′]dipyrrole-1,3,5,7(2H,6H)-tetrone]: the “Efficacy in % found” value (50 ppm a.i.) is given as 8% and the “Efficacy in % found” value (100 ppm a.i.) is on record as 30%.

Regarding `CCOC(=O)C1CC(=O)C(=C(O)C2CC2)C(=O)C1` (stereo not drawn) [C-12.27, trinexapac-ethyl], under “500 ppm a.i.”, the “Efficacy in % found” value came to 60%.
